First the molecules themselves.
B1: chr15:34983303:34983404:-|CDS|ENSG00000198146|msi1|total|mutant (ssRNA)
RNA: GGGAGUUCUACAGUCCGACGAUCGCUGAAAACAAUUUAAAAAUGCUAAAGAUUCAACAGUGUGUGGCCGCCAACAAACUACCCCGAAACAGGCCAUAUGUUUGCAAUAUUUGUUUUAAGCACUUUGAAACACCAUCAAAAUUACAACAGAGGAUUGAGCAUCA
B2: chr7:82953248:82953350:-|CDS|ENSG00000186472|unk|FALSE|unique (ssRNA)
RNA: GGGAGUUCUACAGUCCGACGAUCAACAGAUAUACACCCCAAACCAACAGGCCUAUCUUUAACUUCAAGUAUGACCUUAAAUUUAGUGACUUCAGCAGAUUAUAAAUUGCCUUCCCCUACCUCCCCACUUUCCCCACACUCCAACAACAGAGGAUUGAGCAUCA
B3: ENSG00000079246:stop:overlap|stop_codon|ENSG00000079246|stop_codon|NA|stop_codon (ssRNA)
RNA: GGGAGUUCUACAGUCCGACGAUCGAGACACAGCAGCUGUAUUUGAAGAAGGUGGUGAUGUGGACGAUUUAUUGGACAUGAUAUAGGUCGUGGAUGUAUGGGGAAUCUAAGAGAGCUGCCAUCGCUGUGAUGCUGGGAGUUCUACAACAGAGGAUUGAGCAUCA
B4: ENSG00000103429:stop:overlap|stop_codon|ENSG00000103429|stop_codon|NA|stop_codon (ssRNA)
RNA: GGGAGUUCUACAGUCCGACGAUCAACUGAAUGUGAACACAGCAGGUGUGAGAUGUCAUCUUGGAAGACAGGCCUUGCAGAAAUAGGCCUACAUCCAAAAUAUUAUCUUGUGACUCCAUGAACCAUUCAUUAACCCUUUGUAUCCAACAGAGGAUUGAGCAUCA
B5: chr15:41480918:41481019:+|3pUTR|ENSG00000137815|msi1|FALSE|unique (ssRNA)
RNA: GGGAGUUCUACAGUCCGACGAUCCCUCCCCCAGGGCCCCACCCAGUGUGGGCCUGGGCUCUCUUGGGCUUUAUCCAUGUCUUUAGAUUUGUGUUUGCCUUUUGUUUUUUUAACCGCGCAGUUCAUUGGCCACUCUGCACGCAUCAACAGAGGAUUGAGCAUCA
B6: chr8:86558718:86558819:+|3pUTR|ENSG00000085719|unk|total|mutant (ssRNA)
RNA: GGGAGUUCUACAGUCCGACGAUCCUGUUGUUGUUUUUGUUUACUUUCAUAUGAUGAAAAUGCUGUGUUUAAGUGUUUGUCAACCGGAAGAAUGGAAAACUGUUGGGAUGAUGUGGUUUGCAGGUUGCUGUGCCUGAUUCACAGCAACAGAGGAUUGAGCAUCA
B7: chr10:72011937:72012038:+|3pUTR|ENSG00000122863|msi1|total|mutant (ssRNA)
RNA: GGGAGUUCUACAGUCCGACGAUCCAUACACCGCAGGUGGUCACCGAGUUAUUUUCCAAAAGCUGAGGAACAUAAAGCAAAUUCCGGCUUUUGUCCUUCUGCAAUACAUGCACUUGAAAAUAAACAGAAAAGAGAUGUUUAAUACAACAGAGGAUUGAGCAUCA
B8: chr7:73478266:73478367:-|CDS|ENSG00000009954|unk|FALSE|unique (ssRNA)
RNA: GGGAGUUCUACAGUCCGACGAUCGAGUGGCUCGCCACUCAAAGUGAAGAACUCAAAGAAUUCCAAAUCUCCUGAAGAACAUCUAGAAGAAAUGAUGAAGAUGAUGUCGCCCAAUAAGCUGCACACUAACUUUCACAUUCCUAACAACAGAGGAUUGAGCAUCA
B9: chr10:30312946:30313047:-|3pUTR|ENSG00000107951|unk|FALSE|unique (ssRNA)
RNA: GGGAGUUCUACAGUCCGACGAUCUCUUAUUCACAUAUAAAUUAAAGUGGGUUGGUACUGAUAUCAAAAAAUGUUUAUGUUUUUAGAACAGACAUUUCAGUCACUGCAUUCUUAGGUAUUCCAAACCAAAUAUGAUGACAUCAACAACAGAGGAUUGAGCAUCA
B10: ENSG00000136451:be:win_851|CDS|ENSG00000136451|bound_else_gene|NA|bound_elsewhere_windowed (ssRNA)
RNA: GGGAGUUCUACAGUCCGACGAUCAAGGCAAGGUAUCAUGUAACAUCUGUGGGAAGCUCCUGAGUGCAGCAUACAUCACCAGCCACUUAAAGACUCAUGGGCAGAGCCAAAGUAUCAACUGUAAUACAUGUAAACAAGGCAUCACAACAGAGGAUUGAGCAUCA
B11: chr10:71816509:71816622:-|3pUTR|ENSG00000197746|msi1_unk|FALSE|overlapping (ssRNA)
RNA: GGGAGUUCUACAGUCCGACGAUCUGCCUACAUGUCCCUGGCUGUUGAGGCGCUGCUUCAGCCUGCACCCCUCCCUUGUCUCAUAGAUGCUCCUUUUGACCUUUUCAAAUAAAUAUGGAUGGCGAGCUCCUAGGCCUCUGGCUUCAACAGAGGAUUGAGCAUCA
B12: chr19:45711045:45711146:-|3pUTR|ENSG00000177051|msi1|total|mutant (ssRNA)
RNA: GGGAGUUCUACAGUCCGACGAUCGAAUUGGGGGCUGUCAGGUCACAGGUGGGAUCUGGCAUUUUUUUAUGACAGUCCAUUUCCCGAUGGUUUGCCUAUUAAAGAAGUGGGGGGGAAAUACUGUUUUCUCCUUAACCUCAAGCUCAACAGAGGAUUGAGCAUCA
B13: chr16:87831719:87831834:-|3pUTR|ENSG00000103257|msi1_unk|FALSE|overlapping (ssRNA)
RNA: GGGAGUUCUACAGUCCGACGAUCCCUGCGUUUGGAGGCCCCUGGGCUCUCACCCAGUCCCCACCCGCCUGCAGAGAGGGAACUAGGGCACCCCUUGUUUCUGUUGUUCCCGUGAAUUUUUUUCGCUAUGGGAGGCAGCCGAGGCAACAGAGGAUUGAGCAUCA
B14: chr1:36287001:36287112:+|CDS|ENSG00000054118|unk|FALSE|unique (ssRNA)
RNA: GGGAGUUCUACAGUCCGACGAUCCCCCUCCAGUCUGUGGUGGUGAGGCGGCGGUCACCCCGUCCUAGCCCCGUGCCAAAACCUAGUCCUCCACUUUCCAGCACAUCCCAGAUGGGCUCAACUCUGCCGAGUGGUGCCGGGUAUCAACAGAGGAUUGAGCAUCA
B15: ENSG00000070961:be:win_3851|3pUTR|ENSG00000070961|bound_else_gene|NA|bound_elsewhere_windowed (ssRNA)
RNA: GGGAGUUCUACAGUCCGACGAUCUUUUUGGGGGGUGGGAGAAAUGAACUGACAGAUAAACAGUAACUCAGCGUAAGUGACCUGUGGAUCAUCAGUAGUACCCAAGCAUGGUCCUGAACAGUGUAUUAGCAGAGCUUUAGUUUACAACAGAGGAUUGAGCAUCA
B16: chr21:25758092:25758193:+|CDS|ENSG00000154727|unk|FALSE|unique (ssRNA)
RNA: GGGAGUUCUACAGUCCGACGAUCGAAUUCAGCAUGACCGAUAUAGACCUCACCACACUCAACAUUUCGGGGAGAGAAUUAUGUAGUCUCAACCAAGAAGAUUUUUUUCAGCGGGUUCCUCGGGGAGAAAUUCUCUGGAGUCAUCAACAGAGGAUUGAGCAUCA
B17: chr11:60923185:60923286:+|3pUTR|ENSG00000110108|msi1|FALSE|unique (ssRNA)
RNA: GGGAGUUCUACAGUCCGACGAUCCAGAGAGCAGGGUGAGCUGCCAGCUGCCCCUCUCCACCAGGGUACCCUGUCUUGGUGGUUAGGGGCCACUUUUCCUUUGAGGCUCUAGUGGAGGUGGAUGUCCUUCUCUGCCAGGCUUGGCAACAGAGGAUUGAGCAUCA
B18: chr6:52500910:52501011:-|3pUTR|ENSG00000065308|msi1|total|mutant (ssRNA)
RNA: GGGAGUUCUACAGUCCGACGAUCUAAUAACUGCAAAUCGCAUGUUCAGCCAGCAGCCUCCUAAGCCCACCUUCCUCCCCCAUCCGAGAACACCCAUCCCCGGUGCUCUCCAGGCUGUGUCAUUGGCAGGGCUUCACAUGCAGGCAACAGAGGAUUGAGCAUCA
B19: chr9:132670296:132670397:+|5pUTR|ENSG00000125484|msi1|FALSE|bound_elsewhere (ssRNA)
RNA: GGGAGUUCUACAGUCCGACGAUCCCUCCCCUUUACCGCCCCGUGCGUUUCCUCAGCACUUUAGGAACUAAAGCCUGUCUGGGUAGCUCCCUAACAGGCUCUGGAGCUCAAUCCCUGGGCAGGGAAAAGGGGGUCCUCGGGGCUCAACAGAGGAUUGAGCAUCA
B20: ENSG00000107863:be:win_1451|CDS|ENSG00000107863|bound_else_gene|NA|bound_elsewhere_windowed (ssRNA)
RNA: GGGAGUUCUACAGUCCGACGAUCCAUCUGUUAGUUUUAGUAAUCAUAGAACUCGUUCAUGGGAUUAUAUUGAGGGACAGGAUGAAACCUUAGAAAAUGUCAAUUCUGGAACUCCAAUACCUGAUUCCAAUGGAGAGAAAAAACCAACAGAGGAUUGAGCAUCA
B21: chr9:99150529:99150630:+|3pUTR|ENSG00000106799|msi1|total|mutant (ssRNA)
RNA: GGGAGUUCUACAGUCCGACGAUCCAUUUGUUAUGUAUGCCGGAGUAAACGUUCGGUGGAUCCUCUGUCUUUGUAACUGAGGUCCGAGCCCGUGUGGUUUUGAGGUCUCACUACACUUUGAGGAAGGCAGCUUUUAAUUCAGUGCAACAGAGGAUUGAGCAUCA
B22: chr5:113019263:113019364:+|3pUTR|ENSG00000172795|msi1|total|mutant (ssRNA)
RNA: GGGAGUUCUACAGUCCGACGAUCCUCAACUGUGAAUGAAAUUCCGAAAGAUAAUUCUUCAGCAGUUGGUUGAUCCGAUGGGUCCGUGCUUUUGGAAUAUAUAACAGCCGACUUGUAUUCUUUAUGCACUAUACAUAUGAUACGCAACAGAGGAUUGAGCAUCA

The list shows a part of the results.

The target in this test is T1, UNK ZnF1-6 (called full-length) (human, UniProt Q9C0B0 30-357).
T1 sequence: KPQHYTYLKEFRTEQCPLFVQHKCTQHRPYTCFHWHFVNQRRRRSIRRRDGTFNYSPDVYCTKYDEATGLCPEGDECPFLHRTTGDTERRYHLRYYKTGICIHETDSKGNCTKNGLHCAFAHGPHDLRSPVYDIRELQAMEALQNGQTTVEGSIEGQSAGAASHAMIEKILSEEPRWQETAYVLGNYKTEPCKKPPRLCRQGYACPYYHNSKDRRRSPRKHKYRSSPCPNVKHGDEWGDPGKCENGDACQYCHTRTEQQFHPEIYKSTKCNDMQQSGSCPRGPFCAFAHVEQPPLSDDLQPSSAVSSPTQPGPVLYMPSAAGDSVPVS
In words: nsRBNS (natural sequence RNA bind-n-seq); RBNS binding buffer (assumed for nsRBNS): 25 mM Tris pH 7.5, 150 mM KCl, 3 mM MgCl2, 0.01% Triton X-100, 500 ug/ml BSA, 20 U/ml SUPERase-In, 4 C; UNK is unkempt and MSI1 is Musashi-1; names of the RNAs are library labels; protein concentration not given here; high values mean tight binding.
On to B1, for which the binding signal was determined as 0.28 enrichment R. Then B2, with 1.36 enrichment R; and B3, with 0.46 enrichment R. As for B4, the binding signal is 0.863 enrichment R. Then B5, with 0.998 enrichment R; and B6, with 0.466 enrichment R.

For B7, the binding signal came to 0.34 enrichment R. For B8 the value was 0.258 enrichment R; for B9, 0.618 enrichment R; for B10, 0.5 enrichment R. In the case of B11, the binding signal turned out to be 1.16 enrichment R. As to B12, the binding signal came to 0.615 enrichment R.

B13 showed a binding signal of 0.701 enrichment R. B14 gave a binding signal of 0.741 enrichment R.

The molecule B15 gave a binding signal of 1.18 enrichment R. Then B16, with 0.864 enrichment R. For B17 the value was 0.595 enrichment R; for B18, 0.771 enrichment R. Molecule B19 gave a binding signal of 0.601 enrichment R. Then B20, with 1.8 enrichment R. With B21, the binding signal stood at 0.449 enrichment R. For B22, the binding signal was determined as 0.279 enrichment R.

The values above are taken from publication PMC12136788.
